From PubChem BioAssay AID1963576 (National Center for Advancing Translational Sciences (NCATS), 2024)
Among all 46,000 compounds or so, about 60 (0.1%) were called active. Inconclusive results (about 3%) are left out. Calls follow the shape of the dose curve; as a rule, active = well fitted inhibition curve with a large enough effect; inconclusive = small, poorly fitted or top-dose-only effect; inactive = no such curve, though single readings can be large or run the other way. The list shows a part of the results.

assay: Primary qHTS assay for Inhibitors of ovarian cancer metastasis using an organotypic tumor microenvironment (TME) model.; also: nearly all actives have a fitted effect of over 65% in size;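 as to Potency: count of GFP cancer cells still attached after washing and fixation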;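 as to activity change, negative = inhibition: plate controls were DMSO wells for no effect and tomatine positive control wells for full effect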; conditions: SKOV3ip1-GFP adhesion/invasion on 3D omental model, fluorescence; series mostly up to 45.8 µM; activity change, negative = inhibition: at the top concentration
Procedure, shortened: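 A 3D layer of primary human omental fibroblasts, mesothelial cells, fibronectin and collagen I, grown 48 hr, received SKOV3ip1-GFP cells in serum-free medium plus compounds at 0.36-46 umol/L. After 2 hr RT and 16 hr 37 C, fixed adherent GFP cells were counted; normalized to DMSO and tomatine.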
Potency is read from the fitted curve at half-maximal effect.

| SMILES | activity change, negative = inhibition | outcome | Potency |
| --- | --- | --- | --- |
| CC(C)N(CCNC(=O)CN1CCCC1=O)C(C)C | inactive: -8.02% |  |  |
| NC1=NC(=O)N2CC12 (stereo unspecified) | inactive: 5% |  |  |
| Cc1ccccc1-n1c(/C=C/c2c(C)[nH]c3ccccc23)nc2ccccc2c1=O |  | inactive |  |
| COc1ccc(OCC(=O)N2CCN(CCc3ccncc3)CC2)cc1 | inactive: -4.41% |  |  |
| C[C@]12CC[C@H]3[C@@H](CC[C@@]45O[C@H]4C(O)=C(C#N)C[C@]35C)[C@H]1CC[C@H]2O | inactive: 2.59% |  |  |
| Fc1ccc(C(OCCN2CCN(CCCc3ccccc3)CC2)c2ccc(F)cc2)cc1 | inactive: -24.9% |  |  |
| CN(C)c1ccc(NC(=O)c2sc3nc4c(cc3c2N)N2CCC4CC2)cc1 | inactive: -2.77% |  |  |
| C=C(C)[C@H]1Cc2c(ccc3c2O[C@@H]2COc4cc(OC)c(OC)cc4[C@@H]2C3=O)O1 | inactive: -16.3% |  |  |
| COC(=O)C1=CCCN(C)C1 | inactive: 20.1% |  |  |
| CC(N[C@H]1C[C@H]1c1ccccc1)c1ccc2c(c1)OCCO2 (stereo partly specified) | inactive: -8.14% |  |  |
| Cc1c(C(c2ccc(Br)cc2)c2c(O)c3ccccc3oc2=O)c(=O)n(-c2ccccc2)n1C (stereo unspecified) | inactive: -3.08% |  |  |
| Cc1ccc(Cn2cccc(C(=O)Nc3cc(C)on3)c2=O)cc1 | inactive: -1.71% |  |  |
| Cc1cccc(-c2nn3c(=O)cc(CN4CCN(C(=O)COc5ccc(Cl)cc5)CC4)nc3s2)c1 |  | inactive |  |
| CCc1nc(SC)ncc1C(=O)Nc1ccc(Cl)cc1C(=O)c1ccccc1 | inactive: -2.09% |  |  |
| CC(=O)Nc1ccc(OC[C@](C)(O)C(=O)Nc2ccc([N+](=O)[O-])c(C(F)(F)F)c2)cc1 | inactive: -13.3% |  |  |
| COc1cccc(C2SCC(=O)Nc3c2c(C)nn3-c2ccc(C)c(Cl)c2)c1OC (stereo unspecified) | inactive: 2.71% |  |  |
| Cc1ccccc1OCC(=O)N1CCN(CCc2ccccn2)CC1 | inactive: 12.7% |  |  |
| C[C@](O)(COc1ccc(C#N)cc1)C(=O)Nc1ccc(C#N)c(C(F)(F)F)c1 | inactive: -7.97% |  |  |
| O=C(Nc1ccc2c(c1)OCO2)c1cccn(Cc2cccc([N+](=O)[O-])c2)c1=O | inactive: -9.5% |  |  |
| CC=C(C)C(=O)N[C@@H](c1ccccc1)[C@@H](O)C(=O)O[C@H]1C[C@@]2(O)[C@@H](OC(=O)c3ccccc3)[C@@H]3[C@]4(OC(C)=O)CO[C@@H]4C[C@H](O)[C@@]3(C)C(=O)[C@H](OC(C)=O)C(=C1C)C2(C)C | inactive: -6.19% |  |  |
| COc1ccc(NC(=O)CCc2nc(C3=CCN(Cc4cccc(Cl)c4)CC3)no2)c(OC)c1 | inactive: -4.57% |  |  |
| O=S1(=O)N(Cc2ccccc2Cl)CCCN1Cc1ccccc1Cl | inactive: 7.21% |  |  |

| SMILES | activity change, negative = inhibition | outcome | Potency |
| --- | --- | --- | --- |
| CCCCC12CN3CC(C)(CN(C1)C3c1ccccn1)C2=O (stereo unspecified) | inactive: 98.4% |  |  |
| Cc1cccc(CN2C(=O)CN=C(c3ccccc3)c3ccccc32)c1 |  | inactive |  |
| COc1ccc(-n2c(/C=C/c3cccc(F)c3)nc3ccccc3c2=O)cc1Cl | inactive: -5.08% |  |  |
| Cc1ccc(NC(=O)Cn2cc(C(=O)c3ccccc3)c3ccccc32)c(C)c1 |  | inactive |  |
| CCOc1ccc(CN(CCc2ccc3c(c2)OCO3)Cc2ccc(C)cc2)cc1 |  | inactive |  |
| CC(C)Cc1nc2cccnc2n1C1CCNCC1 |  | inactive |  |
| Cc1cccc(-n2nc(C)c3c2NC(=O)CSC3c2ccccc2Cl)c1 (stereo unspecified) | inactive: 0.526% |  |  |
| Cc1nnc(NC(=O)c2cccn(Cc3cccc(F)c3)c2=O)s1 | inactive: -5.72% |  |  |
| O=c1[nH]c2ccccc2n1C1CCN(Cc2ccc(-c3[nH]c4cc5ncnc5cc4nc3-c3ccccc3)cc2)CC1 | inactive: 26.7% |  |  |
| COc1cccc(-c2nn3c(=O)cc(CN4CCN(C(=O)COc5ccccc5C)CC4)nc3s2)c1 |  | inactive |  |
| Cc1ccc(OCC(=O)Nc2ccc(Cl)cc2C(=O)c2ccccc2)cc1C | inactive: 0.525% |  |  |
| CC(C)c1ccc(OCC(=O)N2CCN(CCc3ccccn3)CC2)cc1 | inactive: 0.583% |  |  |
| Cc1ccc(OCC(=O)N2CCN(CCc3ccncc3)CC2)cc1 | inactive: -7.16% |  |  |
| Cc1cccc(Cn2cccc(C(=O)Nc3ccc(F)cc3F)c2=O)c1 | inactive: -7.99% |  |  |
| COc1ccc(OCC(=O)N2CCN(Cc3cc(=O)n4nc(-c5ccc(OC)cc5)sc4n3)CC2)cc1 | inactive: -2.32% |  |  |
| Cc1ccccc1-n1c(/C=C/c2ccc(N(C)C)cc2)nc2ccccc2c1=O | inactive: 10.5% |  |  |
| O=C(c1ccc2c(c1)N(Cc1ccc(F)cc1)C(=O)c1ccccc1S2)N1CCC2(CC1)OCCO2 | inactive: 6.4% |  |  |
| COc1ccc(OCC(=O)N2CCN(Cc3ccc(SC)cc3)CC2)cc1 | inactive: -11.3% |  |  |
| COc1ccc2c(c[n+](C)c3c4cc5c(cc4ccc23)OCO5)c1OC |  |  | active: 23.5 µM |
| CCC1(c2ccc(N)cc2)CCC(=O)NC1=O (stereo unspecified) | inactive: -6.54% |  |  |
| Cc1ccc(C(=O)Nc2ccccc2)cc1S(=O)(=O)N1CCCC1 | inactive: 8.01% |  |  |
| Cc1ccc(C(C)C)c(OCC(=O)N2CCN(CCc3ccncc3)CC2)c1 | inactive: -1.68% |  |  |

| SMILES | activity change, negative = inhibition | outcome | Potency |
| --- | --- | --- | --- |
| C[C@@H]1[C@H](O)[C@@H](C)C=CC=CCCC=CC=CC=CC=C[C@H](O[C@H]2O[C@@H](C)[C@H](O)[C@@H](N)[C@@H]2O)CC2O[C@](O)(C[C@@H](O)[C@H](O)CC[C@@H](O)C[C@@H](O)C[C@@H](O)CC(=O)O[C@H]1C)C[C@H](O)[C@H]2C(=O)O | inactive: 14.7% |  |  |
| Cc1ccccc1CN1C(=O)C(C)N=C(c2ccccc2)c2ccccc21 (stereo unspecified) | inactive: -3.54% |  |  |
| CCOc1ccc(CN(CCc2ccc3c(c2)OCO3)Cc2ccc(OC)c(Br)c2)cc1 | inactive: -5.42% |  |  |
| CCOc1ccc2nc(NC(=O)c3cccn(Cc4ccccc4Cl)c3=O)sc2c1 |  | inactive |  |
| CCCN1CCO[C@@H]2c3cc(O)ccc3OC[C@@H]21 | inactive: 2.7% |  |  |
| C[C@@H]1CC[C@H]2[C@@H](C)C(=O)O[C@@H]3O[C@@]4(C)CC[C@H]1[C@]32OO4 | inactive: -4.42% |  |  |
| CCc1ccc(OCC(=O)N2CCN(CCc3ccncc3)CC2)cc1 | inactive: -0.114% |  |  |
| CC(C)(O)C(=O)Nc1ccc([N+](=O)[O-])c(C(F)(F)F)c1 | inactive: 4.83% |  |  |
| COc1ccc(OC)c(C(c2c(O)c3ccccc3oc2=O)c2c(C)n(C)n(-c3ccccc3)c2=O)c1 (stereo unspecified) | inactive: 3.25% |  |  |
| CCc1cccc(NC(=O)CN2C(=O)CN=C(c3ccccc3F)c3cc(Cl)ccc32)c1 | inactive: -22.5% |  |  |
| CSc1ccc(/C=C/c2nc3ccccc3c(=O)n2-c2cccc(Cl)c2C)cc1 | inactive: -6.08% |  |  |
| Cc1cc(OCC(=O)N2CCN(CCc3ccncc3)CC2)ccc1Cl | inactive: 1.16% |  |  |
| Cc1c(C(=O)Nc2cccc(C(F)(F)F)c2)cc(-c2ccccc2)n1CCCN1CCOCC1 | inactive: -19.1% |  |  |
| CCOc1ccc(CN(CCc2ccc3c(c2)OCO3)Cc2cc(OC)ccc2O)cc1 | inactive: -7.4% |  |  |
| CC(C)c1ccc(OCC(=O)N2CCN(CCc3ccncc3)CC2)cc1 | inactive: 8.56% |  |  |
| COc1ccc(-n2c(/C=C\c3ccccc3F)nc3ccccc3c2=O)c(OC)c1 | inactive: -7.87% |  |  |
| N#Cc1cc2c(nc1SCC(=O)Nc1ccc(C(F)(F)F)cc1)C1CCN2CC1 |  | inactive |  |
| Cc1cccc(-n2c(/C=C/c3c[nH]c4ccccc34)nc3ccccc3c2=O)c1 | inactive: -0.167% |  |  |
| C[C@]12CC[C@@H]3[C@@H](CCC4=CC(=O)CC[C@@H]43)[C@@H]1CC[C@@H]2OC(=O)CCc1ccccc1 | inactive: 24.8% |  |  |
| COc1ccc(-c2nc(CN3C(=O)CN=C(c4ccccc4)c4ccccc43)c(C)o2)cc1 | inactive: -20.4% |  |  |
| c1cc2c(cc1[C@H]1OC[C@H]3[C@H]1CO[C@H]3c1ccc3c(c1)OCO3)OCO2 | inactive: -2.3% |  |  |
| C[C@]12CC[C@H]3[C@@H](CCC4=CC(=O)CC[C@@]43C)[C@H]1CC[C@H]2OC(=O)CCC1CCCC1 | inactive: -18.7% |  |  |

| SMILES | activity change, negative = inhibition | outcome | Potency |
| --- | --- | --- | --- |
| O=C(O)CCCc1ccc(N(CCCl)CCCl)cc1 | inactive: 3.28% |  |  |
| CC1=C2C[C@@H]3[C@@H](CC=C4C[C@@H](O)CC[C@@]43C)[C@@H]2CC[C@]12O[C@H]1C[C@H](C)CN[C@H]1[C@H]2C | inactive: 19.5% |  |  |
| Cc1cccc(Cn2cccc(C(=O)Nc3cc(C)on3)c2=O)c1 |  | inactive |  |
| COc1ccc(C(=O)N2CCCC2=O)cc1 | inactive: 2.05% |  |  |
| Oc1ccc2c3c1O[C@H]1c4[nH]c5c(c4C[C@@]4(O)[C@@H](C2)N(CC2CC2)CC[C@]314)C[C@@]1(O)[C@H]2Cc3ccc(O)c4c3[C@@]1(CCN2CC1CC1)[C@H]5O4 | inactive: 5.04% |  |  |
| CCN(CC)C(=O)c1ccc(NC(=O)CCn2nc(-c3ccc(Cl)cc3)c3ccccc3c2=O)cc1 |  | inactive |  |
| COc1ccc(CN2CCN(C(=O)COc3ccccc3)CC2)c(OC)c1 |  | inactive |  |
| Cc1cccc(C2CC(=O)Oc3c2c(=O)oc2ccccc32)c1 (stereo unspecified) | inactive: -8.92% |  |  |
| Cc1c(N)nc([C@H](CC(N)=O)NC[C@@H](N)C(N)=O)nc1C(=O)N[C@H](C(=O)N[C@@H](C)[C@H](O)[C@@H](C)C(=O)N[C@@H](C(=O)NCCc1nc(-c2nc(C(=O)NCCC[S+](C)C)cs2)cs1)[C@@H](C)O)C(O[C@H]1O[C@H](CO)[C@H](O)[C@@H](O)[C@@H]1O[C@H]1O[C@H](CO)[C@@H](O)[C@H](OC(N)=O)[C@H]1O)c1cnc[nH]1 (stereo partly specified) | inactive: -27.2% |  |  |
| CC1=C(O)C(=O)C=C2C1=CC=C1[C@@]2(C)CC[C@@]2(C)[C@@H]3C[C@](C)(C(=O)O)CC[C@]3(C)CC[C@]12C |  |  | active: 4.18 µM |
| CCN(CC)C(=O)c1ccc(NC(=O)CCn2nc(-c3ccc(C)cc3)c3ccccc3c2=O)cc1 | inactive: -6.14% |  |  |
| Cc1cc(OCC(=O)N2CCN(CCc3ccccn3)CC2)cc(C)c1Cl | inactive: 0.996% |  |  |
| CCOc1ccc(CN(CCc2ccc3c(c2)OCO3)Cc2cccc(C)c2)cc1 | inactive: -8.79% |  |  |
| O=C(CN1C(=O)CN=C(c2ccccc2)c2ccccc21)Nc1cccc(C(F)(F)F)c1 | inactive: 4.2% |  |  |
| CCCC1=Nc2cc(C(=O)NC3CCC(C)CC3)ccc2Sc2ccccc21 (stereo unspecified) | inactive: -5.69% |  |  |
| COc1cccc2c1[C@]13CCN(CC4CC4)[C@H](C2)[C@]1(OC)CCC(=O)C3 | inactive: 0.373% |  |  |
| CC(C)(O)C=CC(=O)[C@](C)(O)[C@H]1[C@H](O)C[C@]2(C)[C@@H]3CC=C4[C@@H](C=C(O)C(=O)C4(C)C)[C@]3(C)C(=O)C[C@@]12C |  |  | active: 1.05 µM |
| Cc1cc(NC(=O)c2cccn(Cc3ccccc3)c2=O)no1 |  | inactive |  |
| CCOC(=O)c1ccc(NC(=O)c2sc3nc4c(cc3c2N)N2CCC4CC2)cc1 | inactive: -13.9% |  |  |
| CC[C@@]1(O)C(=O)OCc2c1cc1n(c2=O)Cc2cc3ccccc3nc2-1 | inactive: 22.5% |  |  |
